Measured values taken from patent US20230235004A1 (published 2023).

Assays:
[1] = molecular target: T1, human MAdCAM expressed on cells (human, UniProt Q13477 19-382); experiment: cell binding
T1 construct: whole, on cells
T1 sequence (looked up): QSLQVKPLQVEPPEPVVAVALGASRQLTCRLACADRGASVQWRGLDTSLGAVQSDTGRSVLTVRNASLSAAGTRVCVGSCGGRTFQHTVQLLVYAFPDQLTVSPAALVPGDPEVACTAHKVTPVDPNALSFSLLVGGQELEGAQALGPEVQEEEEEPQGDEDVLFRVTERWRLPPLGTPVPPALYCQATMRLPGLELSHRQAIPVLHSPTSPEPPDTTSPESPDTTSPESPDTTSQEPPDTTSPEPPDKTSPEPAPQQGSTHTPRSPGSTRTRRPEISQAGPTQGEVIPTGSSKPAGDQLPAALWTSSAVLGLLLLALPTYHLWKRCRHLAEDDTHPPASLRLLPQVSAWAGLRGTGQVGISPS

[2] = molecular target: T2, mouse MAdCAM expressed on cells (mouse, UniProt Q61826 22-405); experiment: cell binding
T2 construct: whole, on cells
T2 sequence (looked up): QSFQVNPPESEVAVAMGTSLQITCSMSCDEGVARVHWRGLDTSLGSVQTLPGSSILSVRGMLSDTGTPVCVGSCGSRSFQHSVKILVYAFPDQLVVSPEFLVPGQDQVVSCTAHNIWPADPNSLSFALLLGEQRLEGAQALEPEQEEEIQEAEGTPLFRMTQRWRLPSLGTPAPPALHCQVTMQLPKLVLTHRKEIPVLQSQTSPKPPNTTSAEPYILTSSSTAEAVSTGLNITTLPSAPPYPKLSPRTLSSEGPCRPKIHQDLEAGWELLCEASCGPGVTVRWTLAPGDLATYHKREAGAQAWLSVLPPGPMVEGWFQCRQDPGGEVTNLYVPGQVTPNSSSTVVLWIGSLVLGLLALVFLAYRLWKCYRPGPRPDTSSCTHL

human MAdCAM protein = molecular target: T3, human MAdCAM protein (human, UniProt Q13477 19-317, limits assumed); experiment: Octet
T3 construct: also called soluble monomeric human MAdCAM; recombinant human MAdCAM
T3 sequence (looked up): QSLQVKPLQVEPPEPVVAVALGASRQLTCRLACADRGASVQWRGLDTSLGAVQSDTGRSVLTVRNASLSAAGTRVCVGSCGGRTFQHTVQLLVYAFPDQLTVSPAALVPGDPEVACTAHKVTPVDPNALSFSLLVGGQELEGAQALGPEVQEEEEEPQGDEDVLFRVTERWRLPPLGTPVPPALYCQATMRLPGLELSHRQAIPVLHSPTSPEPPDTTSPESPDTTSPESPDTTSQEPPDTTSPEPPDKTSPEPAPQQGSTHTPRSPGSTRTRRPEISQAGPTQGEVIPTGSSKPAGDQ

Measured: binding result

B1: MAdCAM antibody Table 1 clone 62 (scFv)
scFv: QVQLVQSGAEVKKPGSSVKVSCKASGGTFSSYAISWVRQAPGQGLEWMGWMEPHTGNTRYAQKFQGRVTITADESTSTAYMELSSLRSEDTAVYYCAKGGFSWFDPWGQGTLVTVSSGGGGSGGGGSGGGGSGGGG[about 100 residues not printed]FGQGTRLEIK
binds: all assays above
